Measured values published in patent US7250389B1, “Antifungal compound and process for producing the same” (Meiji Seika Kaisha, Ltd., priority 1998, dated 2007).

System: Saccharomyces cerevisiae IFO 0203
Experiment: Evaluation test on antifungal activity (paper disk, inhibition zone diameter)
Details: 26° C., one to two days

## COc1ccc(O)c(C(=O)N[C@H]2COC(=O)[C@H](Cc3ccccc3)[C@@H](OC(=O)C(C)C)[C@H](C)OC2=O)n1 [Ex. 17, (2R,3R,4S,7S)-7-(3-Hydroxy-6-methoxypicolinyl-amino)-2-benzyl-5,9-dioxa-3-isobutyryloxy-4-methyl-1,6-cyclononanedione]
Amount of sample used 0.025 μg
  inhibition zone diameter: 16 mm
Amount of sample used 0.05 μg
  inhibition zone diameter: 19 mm
Amount of sample used 0.125 μg
  inhibition zone diameter: 24 mm
Amount of sample used 0.25 μg
  inhibition zone diameter: 27 mm

## CC(C)C(=O)O[C@H]1[C@H](C)OC(=O)[C@@H](NC(=O)c2cccc(N(C)C)c2O)COC(=O)[C@@H]1Cc1ccccc1 [Ex. 49, (2R,3R,4S,7S)-7-(3-(N,N-Dimethylamino)salicyl)amino-2-benzyl-5,9-dioxa-3-isobutyryloxy-4-methyl-1,6-cyclo-nonanedione]
Amount of sample used 0.025 μg
  inhibition zone diameter: 8 mm
Amount of sample used 0.05 μg
  inhibition zone diameter: 8 mm
Amount of sample used 0.125 μg
  inhibition zone diameter: 12 mm
Amount of sample used 0.25 μg
  inhibition zone diameter: 14 mm

## COc1ccnc(C(=O)N[C@H]2COC(=O)[C@H](Cc3ccccc3)[C@@H](OC(=O)C(C)C)[C@H](C)OC2=O)c1OC(=O)CCCCCC(=O)O [Ex. 33, (2R,3R,4S,7S)-7-(3-(6-Carboxyhexanoyloxy)-4-methoxy-picolinylamino)-2-benzyl-5,9-dioxa-3-isobutyryloxy-4-methyl-1,6-cyclononanedione]
Amount of sample used 0.025 μg
  inhibition zone diameter: 12 mm
Amount of sample used 0.05 μg
  inhibition zone diameter: 16 mm
Amount of sample used 0.125 μg
  inhibition zone diameter: 21 mm
Amount of sample used 0.25 μg
  inhibition zone diameter: 24 mm

## COc1ccnc(C(=O)N[C@H]2COC(=O)[C@H](Cc3ccccc3)[C@@H](OC(=O)C(C)C)[C@H](C)OC2=O)c1OC(C)=O [Ex. 18, (2R,3R,4S,7S)-7-(3-Acetoxy-4-methoxypicolinylamino)-2-benzyl-5,9-dioxa-3-isobutyryloxy-4-methyl-1,6-cyclo-nonanedione]
Amount of sample used 0.025 μg
  inhibition zone diameter: 10 mm
Amount of sample used 0.05 μg
  inhibition zone diameter: 12 mm
Amount of sample used 0.125 μg
  inhibition zone diameter: 14 mm
Amount of sample used 0.25 μg
  inhibition zone diameter: 18 mm

## COc1ccnc(C(=O)N[C@H]2COC(=O)[C@H](Cc3ccccc3)[C@@H](OC(=O)C(C)C)[C@H](C)OC2=O)c1OC(=O)[C@H](C)NC(=O)OCc1ccccc1 [Ex. 35, (2R,3R,4S,7S)-7-(3-(N-Carbobenzyloxy-L-alanyl)oxy-4-methoxypicolinylamino)-2-benzyl-5,9-dioxa-3-isobutyryl-oxy-4-methyl-1,6-cyclononanedione]
Amount of sample used 0.025 μg
  inhibition zone diameter: 12 mm
Amount of sample used 0.05 μg
  inhibition zone diameter: 17 mm
Amount of sample used 0.125 μg
  inhibition zone diameter: 22 mm
Amount of sample used 0.25 μg
  inhibition zone diameter: 26 mm

## CC(C)C(=O)O[C@H]1[C@H](C)OC(=O)[C@@H](NC(=O)c2cccnc2O)COC(=O)[C@@H]1Cc1ccccc1 [Ex. 4, (2R,3R,4S,7S)-7-(2-Hydroxynicotinylamino)-2-benzyl-5,9-dioxa-3-isobutyryloxy-4-methyl-1,6-cyclononanedione]
Amount of sample used 0.025 μg
  inhibition zone diameter: 0 mm
Amount of sample used 0.05 μg
  inhibition zone diameter: 12 mm
Amount of sample used 0.125 μg
  inhibition zone diameter: 16 mm
Amount of sample used 0.25 μg
  inhibition zone diameter: 17 mm

## COC(=O)CCCC(=O)Oc1c(OC)ccnc1C(=O)N[C@H]1COC(=O)[C@H](Cc2ccccc2)[C@@H](OC(=O)C(C)C)[C@H](C)OC1=O [Ex. 23, (2R,3R,4S,7S)-7-(3-(4-Methoxycarbonylbutyryloxy)-4-methoxypicolinylamino)-2-benzyl-5,9-dioxa-3-isobutyryl-oxy-4-methyl-1,6-cyclononanedione]
Amount of sample used 0.025 μg
  inhibition zone diameter: 14 mm
Amount of sample used 0.05 μg
  inhibition zone diameter: 17 mm
Amount of sample used 0.125 μg
  inhibition zone diameter: 22 mm
Amount of sample used 0.25 μg
  inhibition zone diameter: 24 mm

## CC(C)C(=O)O[C@H]1[C@H](C)OC(=O)[C@@H](NC(=O)c2nc3ccccc3nc2O)COC(=O)[C@@H]1Cc1ccccc1 [Ex. 8, (2R,3R,4S,7S)-7-(3-Hydroxy-2-quinoxalinecarboxylamino)-2-benzyl-5,9-dioxa-3-isobutyryloxy-4-methyl-1,6-cyclononanedione]
Amount of sample used 0.025 μg
  inhibition zone diameter: 14 mm
Amount of sample used 0.05 μg
  inhibition zone diameter: 18 mm
Amount of sample used 0.125 μg
  inhibition zone diameter: 20 mm
Amount of sample used 0.25 μg
  inhibition zone diameter: 24 mm

## COc1ccnc(C(=O)N[C@H]2COC(=O)[C@H](Cc3ccccc3)[C@@H](OC(=O)C(C)C)[C@H](C)OC2=O)c1OC(=O)CCCC(=O)OCc1ccccc1 [Ex. 28, (2R,3R,4S,7S)-7-(3-(4-Benzyloxycarbonylbutyryloxy)-4-methoxypicolinylamino)-2-benzyl-5,9-dioxa-3-isobutyryl-oxy-4-methyl-1,6-cyclononanedione]
Amount of sample used 0.025 μg
  inhibition zone diameter: 11 mm
Amount of sample used 0.05 μg
  inhibition zone diameter: 13 mm
Amount of sample used 0.125 μg
  inhibition zone diameter: 15 mm
Amount of sample used 0.25 μg
  inhibition zone diameter: 18 mm

## COc1ccnc(C(=O)N[C@H]2COC(=O)[C@H](Cc3ccccc3)[C@@H](OC(=O)C(C)C)[C@H](C)OC2=O)c1OC(=O)CCCCCCCCC(=O)O [Ex. 34, (2R,3R,4S,7S)-7-(3-(9-Carboxynonanoyloxy)-4-methoxy-picolinylamino)-2-benzyl-5,9-dioxa-3-isobutyryloxy-4-methyl-1,6-cyclononanedione]
Amount of sample used 0.025 μg
  inhibition zone diameter: 12 mm
Amount of sample used 0.05 μg
  inhibition zone diameter: 15 mm
Amount of sample used 0.125 μg
  inhibition zone diameter: 20 mm
Amount of sample used 0.25 μg
  inhibition zone diameter: 23 mm

## COc1ccnc(C(=O)N[C@H]2COC(=O)[C@H](Cc3ccc([N+](=O)[O-])cc3)[C@@H](OC(=O)C(C)C)[C@H](C)OC2=O)c1O [Ex. 53, (2R,3R,4S,7S)-7-(3-Hydroxy-4-methoxypicolinyl)amino-2-(4-nitrobenzyl)-5,9-dioxa-3-isobutyryloxy-4-methyl-1,6-cyclononanedione]
Amount of sample used 0.025 μg
  inhibition zone diameter: 12 mm
Amount of sample used 0.05 μg
  inhibition zone diameter: 15 mm
Amount of sample used 0.125 μg
  inhibition zone diameter: 18 mm
Amount of sample used 0.25 μg
  inhibition zone diameter: 20 mm

## CC(C)C(=O)O[C@H]1[C@H](C)OC(=O)[C@@H](NC(=O)c2cccc(NC=O)c2O)COC(=O)[C@@H]1Cc1ccccc1 [Ex. 42, (2R,3R,4S,7S)-7-(3-Formylaminosalicyl)amino-2-benzyl-5,9-dioxa-3-isobutyryloxy-4-methyl-1,6-cyclononanedione]
Amount of sample used 0.025 μg
  inhibition zone diameter: 8 mm
Amount of sample used 0.05 μg
  inhibition zone diameter: 12 mm
Amount of sample used 0.125 μg
  inhibition zone diameter: 16 mm
Amount of sample used 0.25 μg
  inhibition zone diameter: 17 mm

## COc1ccnc(C(=O)N[C@H]2COC(=O)[C@H](Cc3ccc(N(C)C)cc3)[C@@H](OC(=O)C(C)C)[C@H](C)OC2=O)c1O [Ex. 56, (2R,3R,4S,7S)-7-(3-Hydroxy-4-methoxypicolinyl)amino-2-(4-(N,N-dimethylamino)benzyl)-5,9-dioxa-3-isobutyryloxy-4-methyl-1,6-cyclononanedione]
Amount of sample used 0.025 μg
  inhibition zone diameter: 0 mm
Amount of sample used 0.05 μg
  inhibition zone diameter: 11 mm
Amount of sample used 0.125 μg
  inhibition zone diameter: 15 mm
Amount of sample used 0.25 μg
  inhibition zone diameter: 19 mm

## COc1ccnc(C(=O)N[C@H]2COC(=O)[C@H](Cc3ccccc3)[C@@H](OC(=O)C(C)C)[C@H](C)OC2=O)c1OC(=O)CCCCCC(=O)OCc1ccccc1 [Ex. 30, (2R,3R,4S,7S)-7-(3-(6-Benzyloxycarbonylhexanoyloxy)-4-methoxypicolinylamino)-2-benzyl-5,9-dioxa-3-isobutyryl-oxy-4-methyl-1,6-cyclononanedione]
Amount of sample used 0.025 μg
  inhibition zone diameter: 8 mm
Amount of sample used 0.05 μg
  inhibition zone diameter: 10 mm
Amount of sample used 0.125 μg
  inhibition zone diameter: 15 mm
Amount of sample used 0.25 μg
  inhibition zone diameter: 18 mm

## (2R,3R,4S,7S)-7-(3-Diphenyphosphoryloxy-4-methoxy-picolinylamino)-2-benzyl-5,9-dioxa-3-isobutyryloxy-4-methyl-1,6-cyclononanedione [Ex. 36]
Amount of sample used 0.025 μg
  inhibition zone diameter: 12 mm
Amount of sample used 0.05 μg
  inhibition zone diameter: 13 mm
Amount of sample used 0.125 μg
  inhibition zone diameter: 18 mm
Amount of sample used 0.25 μg
  inhibition zone diameter: 19 mm

## CC(C)C(=O)O[C@H]1[C@H](C)OC(=O)[C@@H](NC(=O)c2ccccc2O)COC(=O)[C@@H]1Cc1ccccc1 [Ex. 39, (2R,3R,4S,7S)-7-Salicylamino-2-benzyl-5,9-dioxa-3-isobutyryloxy-4-methyl-1,6-cyclononanedione]
Amount of sample used 0.025 μg
  inhibition zone diameter: 8 mm
Amount of sample used 0.05 μg
  inhibition zone diameter: 8 mm
Amount of sample used 0.125 μg
  inhibition zone diameter: 11 mm
Amount of sample used 0.25 μg
  inhibition zone diameter: 12 mm

## COC(=O)CCC(=O)Oc1c(OC)ccnc1C(=O)N[C@H]1COC(=O)[C@H](Cc2ccccc2)[C@@H](OC(=O)C(C)C)[C@H](C)OC1=O [Ex. 21, (2R,3R,4S,7S)-7-(3-(3-Methoxycarbonylpropionyloxy)-4-methoxypicolinylamino)-2-benzyl-5,9-dioxa-3-isobutyryl-oxy-4-methyl-1,6-cyclononanedione]
Amount of sample used 0.025 μg
  inhibition zone diameter: 15 mm
Amount of sample used 0.05 μg
  inhibition zone diameter: 19 mm
Amount of sample used 0.125 μg
  inhibition zone diameter: 22 mm
Amount of sample used 0.25 μg
  inhibition zone diameter: 25 mm

## COc1ccnc(C(=O)N[C@H]2COC(=O)[C@H](Cc3ccccc3)[C@@H](OC(=O)C(C)C)[C@H](C)OC2=O)c1O [UK-2A, reference compound]
Amount of sample used 0.025 μg
  inhibition zone diameter: 19 mm
Amount of sample used 0.05 μg
  inhibition zone diameter: 22 mm
Amount of sample used 0.125 μg
  inhibition zone diameter: 26 mm
Amount of sample used 0.25 μg
  inhibition zone diameter: 26 mm
